From the supplement of paper PMC11417369
Some of the results follow.

system: PfAP2-HC AP2 domain (GST-tagged); assay: gcPBM binding intensity (ln(normalized median fluorescence intensity)); higher = stronger DNA binding
Outline: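 In this array assay, P. falciparum DNA-binding domains with a GST tag, expressed in E. coli, were applied for 1 h to primer-extended double-stranded 36-bp intergenic genomic probes and negative controls on an Agilent 4 × 180k array. Bound protein was visualised with Alexa488 anti-GST antibody at 488 nm. Binding intensity is the highest Masliner-normalised natural-log median intensity across replicate spots of either probe orientation.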

| Sequence | gcPBM binding intensity (ln) |
| --- | --- |
| TATATATATATATATATATATATATATATAATATTA [XGTACX_negctrl_site558] | 9.29 |
| TATTTAAATGGATGCACACATGCATTAAATAAAATA [CACACA_site3433] | 9.69 |
| TGTAATGTTTACAACACACAAATTATAAATACAAAA [CACACA_site5047] | 9.79 |
| AATATAATATAATGCACACATAAACAAAAAAAAAAA [CACACA_site783] | 9.98 |
| GTTAGCATATTAAGTTGTACACAATTATTCTTCAAT [XGTACX_site8324] | 9.7 |
| TGGTATTTTGATGATAAAAGGAAATTTTTTTTATAC [XGTACX_negctrl_site111] | 9.09 |
| AACAAAGAAAATACATGTACAAAAAATATTAACGAA [XGTACX_site287] | 10 |
| TTTAATACGAATGAGGCACACACCTAGTATACATGC [CACACA_site621] | 9.88 |
| CAAAATAATATATATACACACACACCGATATATATA [CACACA_site8082] | 10.8 |
| TTTAATTTTTTTAAAACACACAAATATATATATATA [CACACA_site3898] | 9.55 |
| GTAATTAAAATATATACACACAAAGGCTATTAAATA [CACACA_site1011] | 10.1 |
| TATATAAAATATTAATGTACATATAAATATATATAT [XGTACX_site6656] | 9.43 |
| ATTTATGAAAGAAATAGTACACACATAAACATTTGT [XGTACX_site5862] | 9.93 |
| TATTGTAATATTATATATATCTATTATGTATATAAA [CACACA_negctrl_site454] | 9.36 |
| AATTATATATTAAAAAGTACAAGTTAATATAATATA [XGTACX_site2737] | 9.69 |
| ATATAAAAAAATTGCACACATAAATATATACATATA [CACACA_site1218] | 9.86 |
| GATACATAGAAACACACACACATACATATATACATA [CACACA_site3438] | 10.7 |
| TCACAAAAAGAACATTGATATTATTATAAAATCGTC [GTGCAC_negctrl_site177] | 9.57 |
| TTTATGTACAGACATATACACACCTCTATAATATAT [CACACA_site730] | 9.88 |
| TTACAAAAATTTTGTTCACACATAAAAATATGTTAC [CACACA_site5740] | 9.57 |
| ATATATTTTTCAAAATGTACAAATAATTAAATACCA [XGTACX_site875] | 9.44 |
| TAATAAATTATTTTTTATTATTTTAATAACACTTCA [CACACA_negctrl_site3] | 9.61 |
| ATTAATAATCGAAAGGTGCACTTTGATTTGATAACA | 9.69 |

| Sequence | gcPBM binding intensity (ln) |
| --- | --- |
| TAATTAAAATTATTTATAAATTAGTATATTTCTATA [CACACA_negctrl_site663] | 9.42 |
| TTATTATTTTATCGTAGTACACCTAAATTATAAAAC [XGTACX_site5251] | 9.41 |
| TGTAGTCTGGAGAAACGTACATAGTATCTGGTAACC [XGTACX_site4939] | 9.6 |
| TATTTATTTTTTTGCACACATATTTTACATTTTAAT [CACACA_site3181] | 10.4 |
| ATAACATTCATATTCACACAAAAATATACTACATAG [CACACA_site4529] | 9.71 |
| TATATATATATATATACACACATATATATATTTATA [CACACA_site627] | 10.2 |
| ATAAAAAAAGGACACACACACATATATATATATATA [CACACA_site5662] | 10.8 |
| ATATAAAAAGTGTATCGTACATTTACTTATTTTATA [XGTACX_site6249] | 9.66 |
| ATTGAAAATTGTTGCACACATAATAATTAAATATAT [CACACA_site1857] | 9.81 |
| CACACCCACAAAAACACACACAAAGGTGTTCTTATA [CACACA_site1293] | 10 |
| AAAAAAATCACATAAAATACTTTATTTTATATTATA [GTGCAC_negctrl_site372] | 9.4 |
| TATATTTCTTATTTCTTATTTTGTCATCACCTTTTT [CACACA_negctrl_site1115] | 9.62 |
| TTACATAATATATGTACACACGCAAATACTTATAAT [CACACA_site7995] | 9.79 |
| TATAAATATGTTCTTACACACACGAATATAAATATG [CACACA_site7537] | 9.89 |
| TACTTTTTTTTTTTTTTTTTTTTTTTTTCCCTTTTT [CACACA_negctrl_site761] | 9.28 |
| CTTTTTTTCCATTAAGCATGCACATTCATATTTACT [TGCATGCA_site170] | 10 |
| ATATATATATATATATGTACATATGTTAATCTGCAT [XGTACX_site1068] | 9.84 |
| TATATATATATAGGTTGTACATTTTGATGTTTACGT [XGTACX_site5503] | 9.96 |
| GTTTATTTATTATAATGTACATTAGTCTGAGGAGTT [XGTACX_site4035] | 9.64 |
| TTTTATTTATATATAGTGCATATTATTATAAAACAA | 9.37 |
| CCATTAAGACACATTGCACACGTGCACCCATAGAAA [CACACA_site4388] | 9.84 |
| TGAACACGCACAAATACACACAAAAAAAATAAATAA [CACACA_site6257] | 10.3 |
| AACAAAATAGGGAACACACACATGTCAATATATAAA [CACACA_site2596] | 10.4 |

| Sequence | gcPBM binding intensity (ln) |
| --- | --- |
| AAAAAAAAATTAAAAACACACATATAAATAAATATA [CACACA_site6845] | 9.8 |
| CACATACACATACAAACACACATTAGATATAAATAT [CACACA_site6854] | 10.3 |
| AAAAAAAATTAATAGGGTACATGAAAAGTGGAATAT [XGTACX_site618] | 9.87 |
| ATAGAAGAAATATGCACACATACATTGAAATGTTTT [CACACA_site321] | 9.84 |
| TTTTTATTTATTAATACACACACACCCACCCACAAA [CACACA_site7965] | 10.4 |
| AAAGAAAAAAATAATTGTACATTTATATTTAATTTA [XGTACX_site8003] | 9.47 |
| TTTTTTTTTAAATAATGTACTTTTCATTATTTAGAT [XGTACX_site1706] | 9.54 |
| TAATTTTATATATGCACACAAAATATGTTCATATAA [CACACA_site4076] | 9.64 |
| TGAAAAATGTTGATGTGTACTTATATAGTGTGTTAA [XGTACX_site2100] | 9.82 |
| TTTAACATAAATTAAACACACAATATAATACATTAA [CACACA_site1237] | 9.72 |
| TTTTTTTTTTTTTTTTGTACGTAATATATGATTAAT [XGTACX_site6876] | 9.33 |
| CATTTTATCAAAAGTGGTACAACCCTTTCAAAAAAT [XGTACX_site341] | 9.33 |
| AAATTACTTTCACAGTGTACTTGGAAAAAAAAAAGA [XGTACX_site1046] | 9.57 |
| AGATATAATAAATATACACACATATATATATATATA [CACACA_site962] | 9.56 |
| ATATATATTTTTATTTGTACATAATTTTTTTTGTGA [XGTACX_site6378] | 9.62 |
| TTTTTTTTTTTTTGCACACACATATATAGATATATA [CACACA_site7784] | 9.95 |
| ATAAAATTGTTTAAATGTACATATGAACAGTCAGTA [XGTACX_site5140] | 9.73 |
| ATATATGTAATAAATAGTACACACACACATATATAT [XGTACX_site2817] | 10.4 |
| ATATATATTTAAATGTGTACTCATTTATTTTATGTC [XGTACX_site4984] | 9.78 |
| ATAGTATAACAGCAATGTACACATATTTGTGTATAT [XGTACX_site7899] | 10 |
| TATATATATAAACACACACACACATATATATATATT [CACACA_site8814] | 10.5 |
| TTTTTTTTTTTTGTCACACATATATTTGTATTTATA [CACACA_site5234] | 9.78 |
| TGATATTTATAATAAATATTATAATAAAATCAAACA [XGTACX_negctrl_site219] | 9.6 |

| Sequence | gcPBM binding intensity (ln) |
| --- | --- |
| ATATATATAATATAATGTACATATATTTTATTTTTA [XGTACX_site3819] | 9.58 |
| TATATACATTTATGTACACACACATATATGTATATT [CACACA_site8971] | 9.96 |
| ATATATTAATTTAATTGTACGAATAAAAAAAAAAAA [XGTACX_site223] | 9.53 |
| AAAGCACCCAAGAATACACACAAATATTATAAAAAA [CACACA_site111] | 9.99 |
| TAATGTATTATATTTAGTACATATAAAAATAATTTT [XGTACX_site6886] | 9.52 |
| ACGTATTAGATAAATACACACACAAGCATATATTTT [CACACA_site9135] | 10.1 |
| TAATAAATGGCTAGTTGTACAGAAATATAAATATTA [XGTACX_site4579] | 9.51 |
| AGATTCAAAAATAAAACATGCAAAAATAAAACGTGC [TGCATGCA_site501] | 9.76 |
| ATATATATTGTACTAGTGCATATATATACATATATT | 9.68 |
| ATAAATAAAAACACAAAACAAAACAAAACAAAACAA [CACACA_negctrl_site1257] | 9.61 |
| TTTCATCTATATGAAACACACAAAGGAAAAAAAATT [CACACA_site7869] | 9.62 |
| TAATACCATTGTCATGCATGCACATTATTACTCTAA [TGCATGCA_site160] | 9.82 |
| TCGTAATTTTTTTTTATATATTAGGAATTTATAAAA [XGTACX_negctrl_site409] | 9.13 |
| ATATTATATTTCTTTTGTACATATTATATAATATAT [XGTACX_site7198] | 10.1 |
| TTTTTTTTGTGTATTTGTACATAATATATATATATA [XGTACX_site7092] | 9.74 |
| AAAATTGTTATTTTATGTACTTATATTTATTTATTT [XGTACX_site3478] | 9.84 |
| AAAAGGTATGTTATACATAGATATGCACATATATGT [TGCATGCA_negctrl_site96] | 9.77 |
| GTAGGATTTTCTTTTGTGCGCAATATAAAAAGAAAA [GTGCAC_site9514] | 9.53 |
| ATTAATATAAAAAGGTAAATGGATGTAATATATATA [XGTACX_negctrl_site2] | 9.73 |
| TTTTTTTTGATAAGTTGTACAATGATATATATCCCT [XGTACX_site3560] | 9.63 |
